# Measurements: the supplement of paper PMC8728848
# Some of the results follow.
# B1: HML-Native (Hypnea musciformis), P84871 (protein)
# chain: QKFCTLDIAPVCCQIVIGGGMYTAGNACMCEGFVSGVGRCENPKECPCTREAQIPSCCSSRWGLVSVTGKCACDCLGGTVAFPEPCPSPY
# Experiments:
# Test in all cases: glycan array binding signal (z-score within array); higher = stronger binding
# Settings in all cases: glycan notation: IUPAC condensed, linker removed
# [1] = molecular target: Gal(b1-3)GlcNAc(b1-2)Man(a1-3)[Gal(b1-3)GlcNAc(b1-2)Man(a1-6)]Man(b1-4)GlcNAc(b1-4)GlcNAc
# Outline: (§1)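 Glycan array data were curated from 3228 arrays in the Consortium for Functional Glycomics database and kept only where the protein sequence was available. Glycan names were converted to IUPAC-condensed notation, and columns mapping to the same glycan were averaged. The binding signal is a within-array Z-score, averaged across arrays of the same protein sequence at different concentrations or buffers and across linkers. Negative Z-scores can be read as non-binding.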
# [2] = molecular target: Gal(b1-3)GlcNAc(b1-2)Man(a1-3)[Gal(b1-3)GlcNAc(b1-2)Man(a1-6)]Man(b1-4)GlcNAc(b1-4)[Fuc(a1-6)]GlcNAc
# Outline: as §1
# [3] = molecular target: Gal(b1-3)GlcNAc(b1-2)Man(a1-3)[GlcNAc(b1-4)][Gal(b1-3)GlcNAc(b1-2)Man(a1-6)]Man(b1-4)GlcNAc(b1-4)GlcNAc
# Outline: as §1
# [4] = molecular target: Gal(b1-3)GlcNAc(b1-2)[Gal(b1-3)GlcNAc(b1-6)]Man(a1-6)[Gal(b1-3)GlcNAc(b1-2)Man(a1-3)]Man(b1-4)GlcNAc(b1-4)GlcNAc
# Outline: as §1
# [5] = molecular target: Gal(b1-3)GlcNAc(b1-3)Gal(b1-3)GlcNAc
# Outline: as §1
# [6] = molecular target: Gal(b1-3)GlcNAc(b1-3)Gal(b1-4)Glc
# Outline: as §1
# [7] = molecular target: Gal(b1-3)GlcNAc(b1-3)Gal(b1-4)GlcNAc
# Outline: as §1
# [8] = molecular target: Gal(b1-3)GlcNAc(b1-3)Gal(b1-4)GlcNAc(b1-2)Man(a1-3)[Gal(b1-3)GlcNAc(b1-3)Gal(b1-4)GlcNAc(b1-2)Man(a1-6)]Man(b1-4)GlcNAc(b1-4)GlcNAc
# Outline: as §1
# [9] = molecular target: Gal(b1-3)GlcNAc(b1-3)Gal(b1-4)GlcNAc(b1-2)[Gal(b1-3)GlcNAc(b1-3)Gal(b1-4)GlcNAc(b1-6)]Man(a1-6)[Gal(b1-3)GlcNAc(b1-3)Gal(b1-4)GlcNAc(b1-2)Man(a1-3)]Man(b1-4)GlcNAc(b1-4)[Fuc(a1-6)]GlcNAc
# Outline: as §1
# [10] = molecular target: Gal(b1-3)GlcNAc(b1-3)Gal(b1-4)GlcNAc(b1-3)Gal(b1-4)GlcNAc(b1-2)[Gal(b1-3)GlcNAc(b1-3)Gal(b1-4)GlcNAc(b1-3)Gal(b1-4)GlcNAc(b1-6)]Man(a1-6)[Gal(b1-3)GlcNAc(b1-3)Gal(b1-4)GlcNAc(b1-3)Gal(b1-4)GlcNAc(b1-2)Man(a1-3)]Man(b1-4)GlcNAc(b1-4)[Fuc(a1-6)]GlcNAc
# Outline: as §1
# [11] = molecular target: Gal(b1-3)GlcNAc(b1-3)Gal(b1-4)GlcNAc(b1-6)[Gal(b1-3)GlcNAc(b1-3)]Gal(b1-4)Glc
# Outline: as §1
# [12] = molecular target: Gal(b1-3)GlcNAc(b1-3)Gal(b1-4)[Fuc(a1-3)]GlcNAc
# Outline: as §1
# [13] = molecular target: Gal(b1-3)GlcNAc(b1-3)Gal(b1-4)[Fuc(a1-3)]GlcNAc(b1-6)[Gal(b1-3)GlcNAc(b1-3)]Gal(b1-4)Glc
# Outline: as §1
# [14] = molecular target: Gal(b1-3)GlcNAc(b1-3)GalNAc
# Outline: as §1
# [15] = molecular target: Gal(b1-3)GlcNAc(b1-6)Gal(b1-4)GlcNAc
# Outline: as §1
# [16] = molecular target: Gal(b1-3)GlcNAc(b1-6)GalNAc
# Outline: as §1
# [17] = molecular target: Gal(b1-3)GlcNAc(b1-6)[Gal(b1-3)]GalNAc
# Outline: as §1
# [18] = molecular target: Gal(b1-3)GlcNAc6S
# Outline: as §1
# [19] = molecular target: Gal(b1-3)[Fuc(a1-4)]GlcNAc
# Outline: as §1
# [20] = molecular target: Gal(b1-3)[Fuc(a1-4)]GlcNAc(b1-2)Man
# Outline: as §1
# [21] = molecular target: Gal(b1-3)[Fuc(a1-4)]GlcNAc(b1-2)Man(a1-3)[Gal(b1-3)[Fuc(a1-4)]GlcNAc(b1-2)Man(a1-6)]Man(b1-4)GlcNAc(b1-4)[Fuc(a1-6)]GlcNAc
# Outline: as §1
# [22] = molecular target: Gal(b1-3)[Fuc(a1-4)]GlcNAc(b1-3)Gal(b1-3)[Fuc(a1-4)]GlcNAc
# Outline: as §1
# [23] = molecular target: Gal(b1-3)[Fuc(a1-4)]GlcNAc(b1-3)Gal(b1-4)[Fuc(a1-3)]GlcNAc
# Outline: as §1
# [24] = molecular target: Gal(b1-3)[Fuc(a1-4)]GlcNAc(b1-6)GalNAc
# Outline: as §1
# [25] = molecular target: Gal(b1-3)[GlcNAc(b1-6)]GalNAc
# Outline: as §1
# [26] = molecular target: Gal(b1-3)[Neu5Ac(a2-6)]GalNAc
# Outline: as §1
# [27] = molecular target: Gal(b1-3)[Neu5Ac(a2-6)]GlcNAc(b1-4)Gal(b1-4)Glc
# Outline: as §1
# [28] = molecular target: Gal(b1-3)[Neu5Ac(b2-6)]GalNAc
# Outline: as §1
# [29] = molecular target: Gal(b1-4)Gal
# Outline: as §1
# [30] = molecular target: Gal(b1-4)GalNAc(a1-3)[Fuc(a1-2)]Gal(b1-4)GlcNAc
# Outline: as §1
# [31] = molecular target: Gal(b1-4)GalNAc(b1-3)[Fuc(a1-2)]Gal(b1-4)GlcNAc
# Outline: as §1
# [32] = molecular target: Gal(b1-4)Glc
# Outline: as §1
# [33] = molecular target: Gal(b1-4)Glc6S
# Outline: as §1
# [34] = molecular target: Gal(b1-4)GlcNAc
# Outline: as §1
# [35] = molecular target: Gal(b1-4)GlcNAc(a1-6)Gal(b1-4)GlcNAc
# Outline: as §1
# [36] = molecular target: Gal(b1-4)GlcNAc(b1-2)Man
# Outline: as §1
# [37] = molecular target: Gal(b1-4)GlcNAc(b1-2)Man(a1-3)Man(b1-4)GlcNAc(b1-4)GlcNAc
# Outline: as §1
# [38] = molecular target: Gal(b1-4)GlcNAc(b1-2)Man(a1-3)[Gal(b1-4)GlcNAc(b1-2)Man(a1-6)]Man(b1-4)GlcNAc(b1-4)GlcNAc
# Outline: as §1
# [39] = molecular target: Gal(b1-4)GlcNAc(b1-2)Man(a1-3)[Gal(b1-4)GlcNAc(b1-2)Man(a1-6)]Man(b1-4)GlcNAc(b1-4)[Fuc(a1-6)]GlcNAc
# Outline: as §1
# [40] = molecular target: Gal(b1-4)GlcNAc(b1-2)Man(a1-3)[Gal(b1-4)GlcNAc(b1-2)Man(a1-6)][Gal(b1-4)GlcNAc(b1-4)]Man(b1-4)GlcNAc(b1-4)[Fuc(a1-6)]GlcNAc
# Outline: as §1
# [41] = molecular target: Gal(b1-4)GlcNAc(b1-2)Man(a1-3)[Gal(b1-4)GlcNAc(b1-2)Man(a1-6)][GlcNAc(b1-4)]Man(b1-4)GlcNAc(b1-4)[Fuc(a1-6)]GlcNAc
# Outline: as §1
# [42] = molecular target: Gal(b1-4)GlcNAc(b1-2)Man(a1-3)[GlcNAc(b1-2)Man(a1-6)]Man(b1-4)GlcNAc(b1-4)GlcNAc
# Outline: as §1
# [43] = molecular target: Gal(b1-4)GlcNAc(b1-2)Man(a1-3)[GlcNAc(b1-4)][Gal(b1-4)GlcNAc(b1-2)Man(a1-6)]Man(b1-4)GlcNAc(b1-4)GlcNAc
# Outline: as §1
# [44] = molecular target: Gal(b1-4)GlcNAc(b1-2)Man(a1-3)[Man(a1-6)]Man(b1-4)GlcNAc(b1-4)GlcNAc
# Outline: as §1
# [45] = molecular target: Gal(b1-4)GlcNAc(b1-2)Man(a1-6)Man(b1-4)GlcNAc(b1-4)GlcNAc
# Outline: as §1
binder,measurement,setting,value
B1,glycan array binding signal (z-score),[1],-0.216
same,glycan array binding signal (z-score),[2],5.16
same,glycan array binding signal (z-score),[3],-0.276
same,glycan array binding signal (z-score),[4],-0.26
same,glycan array binding signal (z-score),[5],-0.251
same,glycan array binding signal (z-score),[6],-0.202
same,glycan array binding signal (z-score),[7],-0.308
same,glycan array binding signal (z-score),[8],-0.19
same,glycan array binding signal (z-score),[9],-0.074
same,glycan array binding signal (z-score),[10],1.92
same,glycan array binding signal (z-score),[11],-0.208
same,glycan array binding signal (z-score),[12],-0.179
same,glycan array binding signal (z-score),[13],-0.289
same,glycan array binding signal (z-score),[14],-0.362
same,glycan array binding signal (z-score),[15],-0.24
same,glycan array binding signal (z-score),[16],-0.294
same,glycan array binding signal (z-score),[17],-0.208
same,glycan array binding signal (z-score),[18],-0.305
same,glycan array binding signal (z-score),[19],-0.267
same,glycan array binding signal (z-score),[20],-0.178
same,glycan array binding signal (z-score),[21],2.92
same,glycan array binding signal (z-score),[22],-0.247
same,glycan array binding signal (z-score),[23],-0.208
same,glycan array binding signal (z-score),[24],-0.165
same,glycan array binding signal (z-score),[25],-0.254
same,glycan array binding signal (z-score),[26],-0.275
same,glycan array binding signal (z-score),[27],-0.125
same,glycan array binding signal (z-score),[28],-0.25
same,glycan array binding signal (z-score),[29],-0.238
same,glycan array binding signal (z-score),[30],-0.284
same,glycan array binding signal (z-score),[31],-0.216
same,glycan array binding signal (z-score),[32],-0.165
same,glycan array binding signal (z-score),[33],-0.313
same,glycan array binding signal (z-score),[34],-0.292
same,glycan array binding signal (z-score),[35],-0.268
same,glycan array binding signal (z-score),[36],-0.297
same,glycan array binding signal (z-score),[37],-0.213
same,glycan array binding signal (z-score),[38],-0.207
same,glycan array binding signal (z-score),[39],5.65
same,glycan array binding signal (z-score),[40],1.48
same,glycan array binding signal (z-score),[41],1.34
same,glycan array binding signal (z-score),[42],-0.303
same,glycan array binding signal (z-score),[43],-0.193
same,glycan array binding signal (z-score),[44],-0.291
same,glycan array binding signal (z-score),[45],-0.307
